{
  "source": "ChEMBL document CHEMBL4888484",
  "about": "“Replenishing the malaria drug discovery pipeline: Screening and hit evaluation of the MMV Hit Generation Library 1 (HGL1) against asexual blood stage Plasmodium falciparum ,using a nano luciferase reporter read-out” (2022)",
  "note": "In all, about 150,000 compounds went through this assay and about 540 (0.36%) showed an effect of 50% or more. This is one part of the list.",
  "data": [
    {"system": "Plasmodium falciparum", "test": "Primary screen in NF54 nanoGlo assay, in single point, at 2uM, 72h; a lower Z score goes with more inhibition", "assay_type": "functional, Erythrocyte", "conditions": "timepoint 72 hour", "units": {"% Inhibition": "%"}, "values": [
      {"smiles": "CCc1nnc2ccc(S(=O)(=O)Nc3ccc(Cl)cc3)cn12", "% Inhibition": 36, "Z score": -0.99},
      {"smiles": "Cc1cc(-c2ccc(C(=O)N3CCS(=O)(=O)CC3)cc2)cn2ccnc12", "% Inhibition": -26, "Z score": 2.74},
      {"smiles": "Cc1cccc(OC2CCCCC2NC(=O)N(C)CC2CC(O)C2)c1", "note": "(stereo not drawn)", "% Inhibition": 4, "Z score": -0.8},
      {"smiles": "O=C(Cn1cnc2ccccc2c1=O)N[C@H](c1ccc(F)cc1)C1CCCC1", "% Inhibition": -9, "Z score": 1.22},
      {"smiles": "CN(Cc1ccccc1C(=O)O)[C@H](c1ccccn1)C1CC1", "% Inhibition": 4, "Z score": -0.58},
      {"smiles": "COCCNC(=O)[C@H](CC(C)C)Nc1nccc(C(F)(F)F)n1", "% Inhibition": -3, "Z score": 0.27},
      {"smiles": "Cc1cc(NC(=O)N2CCCC2)nn1C", "% Inhibition": 11, "Z score": -1.23},
      {"smiles": "CNC(=O)c1cc(S(=O)(=O)N(C)C2(CO)CCC2)cn1C", "% Inhibition": -3, "Z score": 0.5},
      {"smiles": "CN(CCc1cccs1)C(=O)N(c1ccccn1)C1CCCCC1", "% Inhibition": -9, "Z score": 1.1},
      {"smiles": "COc1ccc(-c2nc(C)cc(C)c2CNC(=O)c2ccco2)cc1", "% Inhibition": -2, "Z score": 0.33},
      {"smiles": "COc1ccc(C(=O)N2CCc3cc(S(=O)(=O)NC4CCCC4)ccc32)c(OC)c1", "% Inhibition": -7, "Z score": 0.88},
      {"smiles": "O=c1nc(C2CCN(Cc3nnn(CC(F)(F)F)n3)CC2)[nH][nH]1", "% Inhibition": -7, "Z score": 0.81},
      {"smiles": "CCCS(=O)(=O)NCc1cncc(-c2cnn(C)c2)c1", "% Inhibition": -3, "Z score": 0.55},
      {"smiles": "O=C(c1ccc[n+]([O-])c1)N1CCN(c2nccn3nc4c(c23)CCCC4)CC1", "% Inhibition": -14, "Z score": 1.82},
      {"smiles": "Cc1ccc([C@H](C)NC(=O)c2nccnc2N)o1", "% Inhibition": -5, "Z score": 0.4},
      {"smiles": "CS(=O)(=O)N1CCC(C(=O)N2CCN(c3cnsn3)CC2)CC1", "% Inhibition": 16, "Z score": -3.29},
      {"smiles": "CO[C@@H](C)C(=O)N(Cc1ncc[nH]1)c1cncc(Br)c1", "% Inhibition": 2, "Z score": -0.29},
      {"smiles": "CCOC(=O)Cn1c(=O)n(C[C@H]2CCCO2)c2nc(-c3ccc(CC)cc3)nc(C(N)=O)c21", "% Inhibition": 1, "Z score": -0.21},
      {"smiles": "N#Cc1nc(OCC2CC2)ccc1Cl", "% Inhibition": -6, "Z score": 1.03},
      {"smiles": "CN1CC[C@H](NC(=O)c2cn(C3CCCCC3)nn2)[C@H](Cc2ccccc2)C1", "% Inhibition": -13, "Z score": 1.68},
      {"smiles": "O=C(C[N+]1(CC#Cc2ccccc2)CCOCC1)c1ccc(Cl)cc1", "% Inhibition": 8, "Z score": -1.31},
      {"smiles": "CN(Cc1nc(-c2c(F)cccc2F)cs1)CC1(O)CCC1", "% Inhibition": -12, "Z score": 1.25},
      {"smiles": "Cc1cc(S(=O)(=O)Nc2nccc(C3CC3)n2)ccc1Cl", "% Inhibition": -5, "Z score": 0.48},
      {"smiles": "COc1ccc(N([C@@H](C)C(N)=O)S(C)(=O)=O)cc1OC", "% Inhibition": 16, "Z score": -2.94},
      {"smiles": "CC(NC1CCCN(Cc2ccc(F)cc2F)C1=O)C1CCOC1", "note": "(stereo not drawn)", "% Inhibition": -4, "Z score": 0.48},
      {"smiles": "Cc1oc(C2CCN(C(=O)c3cc(F)ccc3Cl)CC2)nc1C(=O)N1CCOCC1", "% Inhibition": -5, "Z score": 0.74},
      {"smiles": "N[C@H]1C[C@H](c2cc(N3CCC4(CCCC4)C3)nc(C3CC3)n2)C1", "% Inhibition": 32, "Z score": -3.07},
      {"smiles": "Cc1ccccc1C(=O)N1[C@H](C(=O)N2CCCC2)COC12CCN(C(=O)Cc1ccccc1)CC2", "% Inhibition": 12, "Z score": -1.59},
      {"smiles": "Cc1c(C(=O)O)sc2ncnc(N[C@H]3CCCc4ccccc43)c12", "% Inhibition": -11, "Z score": 1.83},
      {"smiles": "Cc1cc(C(=O)N(Cc2ccoc2)C2CCCCC2)no1", "% Inhibition": 4, "Z score": -0.62},
      {"smiles": "Cc1nn(C)c2nc(NCc3ccno3)sc12", "% Inhibition": -18, "Z score": 1.79},
      {"smiles": "O=C(N/C(=N/c1cccc(C(F)(F)F)c1)NCc1ccccn1)c1ccccc1", "% Inhibition": -12, "Z score": 1.08},
      {"smiles": "Cc1ccc(S(=O)(=O)N(C)C)c(Br)c1", "% Inhibition": -9, "Z score": 1.23},
      {"smiles": "CCOc1ccccc1CS(=O)(=O)[C@@H](C)C(=O)NC", "% Inhibition": -10, "Z score": 1.51},
      {"smiles": "O=C(Cn1cncn1)N(Cc1ccc2c(c1)OCO2)c1ccccc1", "% Inhibition": -5, "Z score": 0.89},
      {"smiles": "CCOC(=O)N1CCN(C(=O)C[C@]2(c3ccccc3)CC(=O)N(CCc3ccccn3)C2=O)CC1", "% Inhibition": -5, "Z score": 0.98},
      {"smiles": "CCN1CCCN(S(=O)(=O)c2ccc3c(c2)CCC3)CC12CCOCC2", "% Inhibition": 0, "Z score": 0.02},
      {"smiles": "Cc1nn(CC(=O)Nc2ccc3c(c2)C(=O)N2CCC[C@H]2C(=O)N3)c(C)c1Br", "% Inhibition": 9, "Z score": -1.21},
      {"smiles": "COc1cc(C(=O)NCc2ccc(Cl)s2)ccc1OC1CCN(C)CC1", "% Inhibition": -1, "Z score": 0.14},
      {"smiles": "O=C(N[C@H]1CCCn2ncnc21)c1c(F)ccc2c1OCO2", "% Inhibition": 3, "Z score": -0.44},
      {"smiles": "Cc1ccc(-n2cc3c(N4CCC(C(=O)NCc5ccc(Cl)cc5)CC4)ncnc3n2)cc1", "% Inhibition": 20, "Z score": -1.87},
      {"smiles": "COc1c(F)cccc1S(=O)(=O)N[C@@H]1Cc2ccccc2[C@H]1N", "% Inhibition": -11, "Z score": 2.18},
      {"smiles": "C[C@@]1(O)CCN(CC2CC2)[C@@H](c2cccs2)[C@@H]1NC(=O)c1ccc(F)cc1", "% Inhibition": -13, "Z score": 1.97},
      {"smiles": "O=C(CN1CCN(c2ccc(C(F)(F)F)nn2)CC1)Nc1nncs1", "% Inhibition": 1, "Z score": -0.11},
      {"smiles": "CCn1c(=O)c2[nH]cc(-c3ccccc3)c2n2c(=O)[nH]nc12", "% Inhibition": 0, "Z score": 0.06},
      {"smiles": "COc1ccc([C@H]2[C@H](C(=O)NC3CCCCCC3)CCC(=O)N2C)cc1", "% Inhibition": 36, "Z score": -4.07},
      {"smiles": "Oc1ncnc2nc3n(c12)CCCCC3", "% Inhibition": -6, "Z score": 0.53},
      {"smiles": "COc1ccc(CN2CC[C@H]3CN(C(C)=O)C[C@@]3(CO)C2)cc1C", "% Inhibition": -4, "Z score": 0.64},
      {"smiles": "Cc1nsc(NC(=O)c2cccs2)n1", "% Inhibition": -4, "Z score": 0.55},
      {"smiles": "Cn1ccc2c(-c3c[nH]c(=O)[nH]c3=O)ccnc21", "% Inhibition": -8, "Z score": 0.98},
      {"smiles": "COCC1(CNC(=O)C2CCCCC2)CCC1", "% Inhibition": 2, "Z score": -0.32},
      {"smiles": "COc1ccc(CN2C(=O)N[C@@H](CCC(=O)N3CCOCC3)C2=O)cc1", "% Inhibition": -5, "Z score": 0.62},
      {"smiles": "Cn1ncc(CN2C(=O)N[C@@](C)(C(C)(C)C)C2=O)c1C(F)(F)F", "% Inhibition": -13, "Z score": 2.52},
      {"smiles": "COc1cccc(N2CCN(C(=O)C3CC(=O)N(C4CCS(=O)(=O)C4)C3)CC2)c1", "note": "(stereo not drawn)", "% Inhibition": -7, "Z score": 1}
    ]}
  ]
}
